# Data as given in the supplement of paper PMC8728848.
# This is one part of the list.
# B1: GS14009A-pdi-495-27-495 (Parabacteroides distasonis) (protein)
# chain: FEEVNTDPDSPTDVPTTNLLAYSLYYTSYRLYDRWFAMDEPMTFCGYASKMTYIDESRYNFRTGVQDTNWEYLYRILNNLKDIEKRATFNETPNMLNVSKVMQVHLMQVATDRWRDVPYTDAAKMTDGILQPKYDKQEDIYPGLLATLKEAADGFADGGSDDLGEGDLLFGGDIEKWQRYCNSMRLRLAMRISEVSPALAKETVEEVMGNPTKYPIMESNDDNAFFWWIGTDPNYYEPMADGYRTRKTEYCAADVIVDHMNTREDPRRSSYFQPTKESVEAGEPKYVGYTIGAKANAVASKYSIWGARFFTDLAGFSPYMRVAEPWFCVAEASMLGWNTGISAEDAYNKAVTYSMEENSVSAEDIADYLANAGKFTNDKKQIYYEEWVAMFKQGMEGWSLYRRTGVPDNLYPAPGRPANYSNHNVPPFRSPYPDKERNLNNANCAPFDAEVVDNLWGKQMWWDTRTGVH
# Tests used:
# Experiment in all cases: glycan array binding signal (z-score within array); higher = stronger binding
# Details in all cases: glycan notation: IUPAC condensed, linker removed
# Fuc(a1-2)Gal = biological target: Fuc(a1-2)Gal
# Method in brief: (§1)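 Negative Z-scores can be read as non-binding. The Z-score is calculated within each array and then averaged across arrays of one protein sequence at different concentrations or buffers and across linkers. Arrays, 3228 in all, were curated from the Consortium for Functional Glycomics database and kept only where the protein sequence was available.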
# Fuc(a1-2)Gal(b1-3)GalNAc = biological target: Fuc(a1-2)Gal(b1-3)GalNAc
# Method in brief: as §1
# [1] = biological target: Fuc(a1-2)Gal(b1-3)GalNAc(a1-3)[Fuc(a1-2)]Gal(b1-4)Glc
# Method in brief: as §1
# [2] = biological target: Fuc(a1-2)Gal(b1-3)GalNAc(a1-3)[Fuc(a1-2)]Gal(b1-4)GlcNAc
# Method in brief: as §1
# [3] = biological target: Fuc(a1-2)Gal(b1-3)GalNAc(b1-3)Gal
# Method in brief: as §1
# [4] = biological target: Fuc(a1-2)Gal(b1-3)GalNAc(b1-3)Gal(a1-4)Gal(b1-4)Glc
# Method in brief: as §1
# [5] = biological target: Fuc(a1-2)Gal(b1-3)GalNAc(b1-4)[Neu5Ac(a2-3)]Gal(b1-4)Glc
# Method in brief: as §1
# Fuc(a1-2)Gal(b1-3)GlcNAc = biological target: Fuc(a1-2)Gal(b1-3)GlcNAc
# Method in brief: as §1
# [6] = biological target: Fuc(a1-2)Gal(b1-3)GlcNAc(b1-2)Man(a1-3)[Fuc(a1-2)Gal(b1-3)GlcNAc(b1-2)Man(a1-6)]Man(b1-4)GlcNAc(b1-4)GlcNAc
# Method in brief: as §1
# [7] = biological target: Fuc(a1-2)Gal(b1-3)GlcNAc(b1-2)Man(a1-3)[Fuc(a1-2)Gal(b1-3)GlcNAc(b1-2)Man(a1-6)]Man(b1-4)GlcNAc(b1-4)[Fuc(a1-6)]GlcNAc
# Method in brief: as §1
# [8] = biological target: Fuc(a1-2)Gal(b1-3)GlcNAc(b1-3)Gal(b1-4)Glc
# Method in brief: as §1
# [9] = biological target: Fuc(a1-2)Gal(b1-3)GlcNAc(b1-3)GalNAc
# Method in brief: as §1
# [10] = biological target: Fuc(a1-2)Gal(b1-3)GlcNAc(b1-3)[Fuc(a1-2)Gal(b1-3)GlcNAc(b1-6)]GalNAc
# Method in brief: as §1
# [11] = biological target: Fuc(a1-2)Gal(b1-3)GlcNAc(b1-3)[Gal(b1-4)GlcNAc(b1-6)]Gal(b1-4)Glc
# Method in brief: as §1
# [12] = biological target: Fuc(a1-2)Gal(b1-3)GlcNAc(b1-3)[Neu5Ac(a2-6)Gal(b1-4)GlcNAc(b1-6)]Gal(b1-4)Glc
# Method in brief: as §1
# [13] = biological target: Fuc(a1-2)Gal(b1-3)GlcNAc6S
# Method in brief: as §1
# [14] = biological target: Fuc(a1-2)Gal(b1-3)[Fuc(a1-4)]GlcNAc
# Method in brief: as §1
# [15] = biological target: Fuc(a1-2)Gal(b1-3)[Fuc(a1-4)]GlcNAc(b1-2)Man(a1-3)[Fuc(a1-2)Gal(b1-3)[Fuc(a1-4)]GlcNAc(b1-2)Man(a1-3)]Man(b1-4)GlcNAc(b1-4)GlcNAc
# Method in brief: as §1
# [16] = biological target: Fuc(a1-2)Gal(b1-3)[Fuc(a1-4)]GlcNAc(b1-2)Man(a1-3)[Fuc(a1-2)Gal(b1-3)[Fuc(a1-4)]GlcNAc(b1-2)Man(a1-6)]Man(b1-4)GlcNAc(b1-4)[Fuc(a1-6)]GlcNAc(b1-4)[Fuc(a1-6)]GlcNAc
# Method in brief: as §1
# [17] = biological target: Fuc(a1-2)Gal(b1-3)[Fuc(a1-4)]GlcNAc(b1-3)[Fuc(a1-3)[Gal(b1-4)]GlcNAc(b1-6)]Gal(b1-4)Glc
# Method in brief: as §1
# [18] = biological target: Fuc(a1-2)Gal(b1-3)[Fuc(a1-4)]GlcNAc(b1-3)[Gal(b1-4)GlcNAc(b1-6)]Gal(b1-4)Glc
# Method in brief: as §1
# Fuc(a1-2)Gal(b1-4)Glc = biological target: Fuc(a1-2)Gal(b1-4)Glc
# Method in brief: as §1
# Fuc(a1-2)Gal(b1-4)Glc6S = biological target: Fuc(a1-2)Gal(b1-4)Glc6S
# Method in brief: as §1
# Fuc(a1-2)Gal(b1-4)GlcNAc = biological target: Fuc(a1-2)Gal(b1-4)GlcNAc
# Method in brief: as §1
# [19] = biological target: Fuc(a1-2)Gal(b1-4)GlcNAc(b1-2)Man
# Method in brief: as §1
# [20] = biological target: Fuc(a1-2)Gal(b1-4)GlcNAc(b1-2)Man(a1-3)[Fuc(a1-2)Gal(b1-4)GlcNAc(b1-2)Man(a1-6)]Man(b1-4)GlcNAc(b1-4)GlcNAc
# Method in brief: as §1
# [21] = biological target: Fuc(a1-2)Gal(b1-4)GlcNAc(b1-2)Man(a1-3)[Fuc(a1-2)Gal(b1-4)GlcNAc(b1-2)Man(a1-6)]Man(b1-4)GlcNAc(b1-4)[Fuc(a1-6)]GlcNAc
# Method in brief: as §1
# [22] = biological target: Fuc(a1-2)Gal(b1-4)GlcNAc(b1-2)[Fuc(a1-2)Gal(b1-4)GlcNAc(b1-4)]Man(a1-3)[Fuc(a1-2)Gal(b1-4)GlcNAc(b1-2)Man(a1-6)]Man(b1-4)GlcNAc(b1-4)GlcNAc
# Method in brief: as §1
# [23] = biological target: Fuc(a1-2)Gal(b1-4)GlcNAc(b1-3)Gal(b1-4)GlcNAc
# Method in brief: as §1
# [24] = biological target: Fuc(a1-2)Gal(b1-4)GlcNAc(b1-3)Gal(b1-4)GlcNAc(b1-2)Man(a1-3)[Fuc(a1-2)Gal(b1-4)GlcNAc(b1-3)Gal(b1-4)GlcNAc(b1-2)Man(a1-6)]Man(b1-4)GlcNAc(b1-4)GlcNAc
# Method in brief: as §1
binder,measurement,setting,value
B1,glycan array binding signal (z-score),Fuc(a1-2)Gal,0.274
same,glycan array binding signal (z-score),Fuc(a1-2)Gal(b1-3)GalNAc,0.009
same,glycan array binding signal (z-score),[1],-0.168
same,glycan array binding signal (z-score),[2],-0.466
same,glycan array binding signal (z-score),[3],-0.728
same,glycan array binding signal (z-score),[4],0.204
same,glycan array binding signal (z-score),[5],-0.562
same,glycan array binding signal (z-score),Fuc(a1-2)Gal(b1-3)GlcNAc,-0.332
same,glycan array binding signal (z-score),[6],2.57
same,glycan array binding signal (z-score),[7],0.434
same,glycan array binding signal (z-score),[8],-0.336
same,glycan array binding signal (z-score),[9],-0.01
same,glycan array binding signal (z-score),[10],-0.336
same,glycan array binding signal (z-score),[11],-0.574
same,glycan array binding signal (z-score),[12],-0.142
same,glycan array binding signal (z-score),[13],-0.626
same,glycan array binding signal (z-score),[14],-0.076
same,glycan array binding signal (z-score),[15],-0.193
same,glycan array binding signal (z-score),[16],-0.408
same,glycan array binding signal (z-score),[17],0.007
same,glycan array binding signal (z-score),[18],-0.261
same,glycan array binding signal (z-score),Fuc(a1-2)Gal(b1-4)Glc,-0.343
same,glycan array binding signal (z-score),Fuc(a1-2)Gal(b1-4)Glc6S,-0.658
same,glycan array binding signal (z-score),Fuc(a1-2)Gal(b1-4)GlcNAc,-0.134
same,glycan array binding signal (z-score),[19],-0.18
same,glycan array binding signal (z-score),[20],1.27
same,glycan array binding signal (z-score),[21],-0.171
same,glycan array binding signal (z-score),[22],0.441
same,glycan array binding signal (z-score),[23],-0.485
same,glycan array binding signal (z-score),[24],0.738
